For 22 molecules, IC50 results are on record in patent US11685745B2, “Substituted benzoxazole and benzofuran compounds as PDE7 inhibitors” (Dart NeuroScience, LLC, priority 2017, dated 2023).

For this experiment, the target named is N-terminal truncated recombinant human PDE7B enzyme (Homo sapiens (Human), UniProt Q9NP56). Briefly: biochemical.
Take `O=C1Nc2c(Cl)cc3nc(CNC4CCOCC4F)oc3c2C2(CCCCC2)N1` (stereo not shown) [Example 163, 5-Chloro-2-{[(3-fluorooxan-4-yl)amino]methyl}-7,8-dihydro-6H-spiro[[1,3]oxazolo[5,4-f]quinazoline-9,1′-cyclohexane]-7-one]: the half-maximal inhibitory concentration (IC50) is 10 to 100 nM.
Next, `O=C1Nc2c(Cl)cc3nc(CNCC(F)(F)CO)oc3c2C2(CCCCC2)N1` [Example 164, 5-Chloro-2-{[(2,2-difluoro-3-hydroxypropyl)amino]methyl}-7,8-dihydro-6H-spiro[[1,3]oxazolo[5,4-f]quinazoline-9,1′-cyclohexane]-7-one]: 10 to 100 nM; `O=C1Nc2c(Cl)cc3nc(CNC4CCCC4(F)F)oc3c2C2(CCCCC2)N1` (stereo not shown) [Example 165, 5-Chloro-2-{[(2,2-difluorocyclopentyl)amino]methyl}-7,8-dihydro-6H-spiro[[1,3]oxazolo[5,4-f]quinazoline-9,1′-cyclohexane]-7-one]: 10 to 100 nM.
Next, `COCC1(NCc2nc3cc(Cl)c4c(c3o2)C2(CCCCC2)NC(=O)N4)CCOCC1` [Example 166, 5-Chloro-2-({[4-(methoxymethyl)oxan-4-yl]amino}methyl)-7,8-dihydro-6H-spiro[[1,3]oxazolo[5,4-f]quinazoline-9,1′-cyclohexane]-7-one]: 10 to 100 nM; `O=C1Nc2c(Cl)cc3nc(CNC[C@@H]4CCOC4)oc3c2C2(CCCCC2)N1` [Example 167, 5-Chloro-2-({[(3S)-oxolan-3-ylmethyl]amino}methyl)-7,8-dihydro-6H-spiro[[1,3]oxazolo[5,4-f]quinazoline-9,1′-cyclohexane]-7-one]: 10 to 100 nM.
Turning to `O=C1Nc2c(Cl)cc3nc(CN4C[C@@H]5C[C@H]4CO5)oc3c2C2(CCC(F)(F)CC2)N1` [Example 168, 5-Chloro-4′,4′-difluoro-2-[(1S,4S)-2-oxa-5-azabicyclo[2.2.1]heptan-5-ylmethyl]-7,8-dihydro-6H-spiro[[1,3]oxazolo[5,4-f]quinazoline-9,1′-cyclohexane]-7-one], the IC50 lay within 100 to 1000 nM.
The figure for `O=C1Nc2c(Cl)cc3nc(CNC[C@@H]4CCOC4)oc3c2C2(CCC(F)(F)CC2)N1` [Example 169, 5-Chloro-4′,4′-difluoro-2-({[(3S)-oxolan-3-ylmethyl]amino}methyl)-7,8-dihydro-6H-spiro[[1,3]oxazolo[5,4-f]quinazoline-9,1′-cyclohexane]-7-one] is 10 to 100 nM; for `O=C1Nc2c(Cl)cc3nc(CNCc4ncco4)oc3c2C2(CCCCC2)N1` [Example 170, 5-Chloro-2-{[(1,3-oxazol-2-ylmethyl)amino]methyl}-7,8-dihydro-6H-spiro[[1,3]oxazolo[5,4-f]quinazoline-9,1′-cyclohexane]-7-one] it is 10 to 100 nM; for `O=C1Nc2c(Cl)cc3nc(CNCc4cnco4)oc3c2C2(CCCCC2)N1` [Example 171, 5-Chloro-2-{[(1,3-oxazol-5-ylmethyl)amino]methyl}-7,8-dihydro-6H-spiro[[1,3]oxazolo[5,4-f]quinazoline-9,1′-cyclohexane]-7-one] it is 10 to 100 nM.
Next, `O=C1Nc2c(Cl)cc3nc(CNCCc4ccon4)oc3c2C2(CCCCC2)N1` [Example 172, 5-Chloro-2-({[2-(1,2-oxazol-3-yl)ethyl]amino}methyl)-7,8-dihydro-6H-spiro[[1,3]oxazolo[5,4-f]quinazoline-9,1′-cyclohexane]-7-one]: 10 to 100 nM.
The figure for `O=C1Nc2c(Cl)cc3nc(CNCc4cocn4)oc3c2C2(CCCCC2)N1` [Example 173, 5-Chloro-2-{[(1,3-oxazol-4-ylmethyl)amino]methyl}-7,8-dihydro-6H-spiro[[1,3]oxazolo[5,4-f]quinazoline-9,1′-cyclohexane]-7-one] is 10 to 100 nM.
Regarding `Cn1ccc(CNCc2nc3cc(Cl)c4c(c3o2)C2(CCCCC2)NC(=O)N4)n1` [Example 174, 5-Chloro-2-({[(1-methyl-1H-pyrazol-3-yl)methyl]amino}methyl)-7,8-dihydro-6H-spiro[[1,3]oxazolo[5,4-f]quinazoline-9,1′-cyclohexane]-7-one], the 50% inhibitory concentration (IC50) lay within 10 to 100 nM.
Regarding `O=C1Nc2c(Cl)cc3nc(CNCc4ccno4)oc3c2C2(CCCCC2)N1` [Example 175, 5-Chloro-2-{[(1,2-oxazol-5-ylmethyl)amino]methyl}-7,8-dihydro-6H-spiro[[1,3]oxazolo[5,4-f]quinazoline-9,1′-cyclohexane]-7-one], the IC50 was 10 to 100 nM.
Consider `O=C1Nc2c(Cl)cc3nc(COC4CCOCC4)oc3c2C2(CCCCC2)N1` [Example 177, 5-Chloro-2-[(oxan-4-yloxy)methyl]-7,8-dihydro-6H-spiro[[1,3]oxazolo[5,4-f]quinazoline-9,1′-cyclohexane]-7-one], for which the IC50 is 10 to 100 nM.
Next, `CN1CCC(OCc2nc3cc(Cl)c4c(c3o2)C2(CCCCC2)NC(=O)N4)CC1` [Example 178, 5-Chloro-2-{[(1-methylpiperidin-4-yl)oxy]methyl}-7,8-dihydro-6H-spiro[[1,3]oxazolo[5,4-f]quinazoline-9,1′-cyclohexane]-7-one]: 100 to 1000 nM.
The figure for `CN(C)CCNC(=O)c1nc2cc(Cl)c3c(c2o1)C1(CCCCC1)NC(=O)N3` [Example 179, 5-Chloro-N-[2-(dimethylamino)ethyl]-7-oxo-7,8-dihydro-6H-spiro[[1,3]oxazolo[5,4-f]quinazoline-9,1′-cyclohexane]-2-carboxamide] is 100 to 1000 nM; for `O=C1Nc2c(Cl)cc3nc(C(=O)N4CCOCC4)oc3c2C2(CCCCC2)N1` [Example 180, 5-Chloro-2-(morpholine-4-carbonyl)-7,8-dihydro-6H-spiro[[1,3]oxazolo[5,4-f]quinazoline-9,1′-cyclohexane]-7-one] it is 100 to 1000 nM; for `CN(C)C(=O)c1nc2cc(Cl)c3c(c2o1)C1(CCCCC1)NC(=O)N3` [Example 181, 5-Chloro-N,N-dimethyl-7-oxo-7,8-dihydro-6H-spiro[[1,3]oxazolo[5,4-f]quinazoline-9,1′-cyclohexane]-2-carboxamide] it is 10 to 100 nM.
Next, `CN1CCN(C(=O)c2nc3cc(Cl)c4c(c3o2)C2(CCCCC2)NC(=O)N4)CC1` [Example 182, 5-Chloro-2-(4-methylpiperazine-1-carbonyl)-7,8-dihydro-6H-spiro[[1,3]oxazolo[5,4-f]quinazoline-9,1′-cyclohexane]-7-one]: 10 to 100 nM.
On to `COCCNC(=O)c1nc2cc(Cl)c3c(c2o1)C1(CCCCC1)NC(=O)N3` [Example 183, 5-Chloro-N-(2-methoxyethyl)-7-oxo-7,8-dihydro-6H-spiro[[1,3]oxazolo[5,4-f]quinazoline-9,1′-cyclohexane]-2-carboxamide], for which the IC50 was 10 to 100 nM.
The figure for `COCCN(C)C(=O)c1nc2cc(Cl)c3c(c2o1)C1(CCCCC1)NC(=O)N3` [Example 185, 5-Chloro-N-(2-methoxyethyl)-N-methyl-7-oxo-7,8-dihydro-6H-spiro[[1,3]oxazolo[5,4-f]quinazoline-9,1′-cyclohexane]-2-carboxamide] is 10 to 100 nM; for `CN(CC1CCOCC1)C(=O)c1nc2cc(Cl)c3c(c2o1)C1(CCCCC1)NC(=O)N3` [Example 186, 5-Chloro-N-methyl-N-(oxan-4-ylmethyl)-7-oxo-7,8-dihydro-6H-spiro[[1,3]oxazolo[5,4-f]quinazoline-9,1′-cyclohexane]-2-carboxamide] it is 10 to 100 nM.
